Reference: publication PMC12863670
These are yes or no findings as the source states them, for the method shown. In cells and extracts the contact can be indirect. Some binding calls cover weakened binding; strength is not graded here. Where a sequence is shown, tags or fusion partners need not be part of it.

Sequences of proteins named here, by UniProt entry; tags and fusion partners are left off. A change or cut given only in a name is not applied to a line headed by its entry.
UniProt Q9UGP4: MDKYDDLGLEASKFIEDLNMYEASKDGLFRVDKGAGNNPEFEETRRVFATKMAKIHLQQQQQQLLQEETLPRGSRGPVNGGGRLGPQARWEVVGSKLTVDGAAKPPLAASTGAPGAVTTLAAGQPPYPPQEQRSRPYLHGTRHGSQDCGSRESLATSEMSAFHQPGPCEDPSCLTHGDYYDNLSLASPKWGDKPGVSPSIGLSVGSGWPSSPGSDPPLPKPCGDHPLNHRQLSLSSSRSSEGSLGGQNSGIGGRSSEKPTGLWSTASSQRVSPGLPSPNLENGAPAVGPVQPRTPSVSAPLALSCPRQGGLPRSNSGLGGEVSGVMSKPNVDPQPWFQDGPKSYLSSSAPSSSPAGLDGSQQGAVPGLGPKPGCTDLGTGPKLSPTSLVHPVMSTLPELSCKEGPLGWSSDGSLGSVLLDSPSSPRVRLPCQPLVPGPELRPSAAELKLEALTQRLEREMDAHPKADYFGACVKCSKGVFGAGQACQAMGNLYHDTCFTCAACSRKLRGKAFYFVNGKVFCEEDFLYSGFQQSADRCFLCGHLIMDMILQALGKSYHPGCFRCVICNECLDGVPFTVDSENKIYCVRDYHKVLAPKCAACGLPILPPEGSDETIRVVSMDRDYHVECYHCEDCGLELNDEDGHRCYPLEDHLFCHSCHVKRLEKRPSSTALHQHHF

Legend:
[1] = biological target: T1, LATS1-3xMyc (full-length LATS1) (UniProt O95835); test: co-IP; lysates of separately transfected HEK293A cells combined (2:1, 1 h, 4°C); LATS1-3xMyc precipitated with anti-Myc on Protein G Dynabeads, GFP- or V5-tagged LIMD1 variants detected by blot; IgG control; buffer 20 mM Tris-HCl pH 7, 137 mM NaCl, 2 mM EDTA, 1% NP-40, 10% glycerol
T1 sequence: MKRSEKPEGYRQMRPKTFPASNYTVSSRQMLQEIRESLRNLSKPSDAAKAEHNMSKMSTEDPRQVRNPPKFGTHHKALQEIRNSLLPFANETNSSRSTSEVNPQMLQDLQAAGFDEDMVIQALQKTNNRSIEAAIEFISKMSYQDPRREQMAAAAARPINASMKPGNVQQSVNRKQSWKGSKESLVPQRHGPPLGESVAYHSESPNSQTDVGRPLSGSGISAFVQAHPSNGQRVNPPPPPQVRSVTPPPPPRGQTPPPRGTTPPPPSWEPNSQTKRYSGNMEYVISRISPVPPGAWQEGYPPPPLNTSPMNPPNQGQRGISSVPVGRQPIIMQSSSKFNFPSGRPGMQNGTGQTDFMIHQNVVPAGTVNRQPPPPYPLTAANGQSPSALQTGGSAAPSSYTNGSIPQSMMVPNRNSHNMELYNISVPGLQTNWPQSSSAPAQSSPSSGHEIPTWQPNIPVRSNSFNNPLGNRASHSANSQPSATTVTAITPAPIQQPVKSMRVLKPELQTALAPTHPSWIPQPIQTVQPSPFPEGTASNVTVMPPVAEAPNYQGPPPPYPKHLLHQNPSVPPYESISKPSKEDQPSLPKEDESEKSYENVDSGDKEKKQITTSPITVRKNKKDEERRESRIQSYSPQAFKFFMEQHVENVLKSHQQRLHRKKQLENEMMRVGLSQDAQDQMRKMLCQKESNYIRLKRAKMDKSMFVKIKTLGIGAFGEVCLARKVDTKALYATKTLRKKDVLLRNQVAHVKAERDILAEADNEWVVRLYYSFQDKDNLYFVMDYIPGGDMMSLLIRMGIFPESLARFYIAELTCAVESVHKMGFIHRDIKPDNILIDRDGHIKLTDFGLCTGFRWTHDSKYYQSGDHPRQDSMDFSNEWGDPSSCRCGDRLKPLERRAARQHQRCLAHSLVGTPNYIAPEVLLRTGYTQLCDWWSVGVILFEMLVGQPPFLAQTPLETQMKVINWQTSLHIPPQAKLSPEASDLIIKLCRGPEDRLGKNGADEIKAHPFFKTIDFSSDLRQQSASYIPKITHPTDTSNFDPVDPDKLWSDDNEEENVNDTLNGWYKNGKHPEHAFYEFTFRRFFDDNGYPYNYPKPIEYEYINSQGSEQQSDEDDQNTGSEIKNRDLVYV

[2] = biological target: T2, LATS2-FLAG (full-length LATS2) (UniProt Q9NRM7); test: co-IP; lysates of separately transfected HEK293A cells combined (2:1, 1 h, 4°C); LATS2-FLAG precipitated with anti-FLAG on Protein G Dynabeads, GFP-LIMD1 variants detected by anti-GFP blot; IgG control; buffer 20 mM Tris-HCl pH 7, 137 mM NaCl, 2 mM EDTA, 1% NP-40, 10% glycerol
T2 sequence: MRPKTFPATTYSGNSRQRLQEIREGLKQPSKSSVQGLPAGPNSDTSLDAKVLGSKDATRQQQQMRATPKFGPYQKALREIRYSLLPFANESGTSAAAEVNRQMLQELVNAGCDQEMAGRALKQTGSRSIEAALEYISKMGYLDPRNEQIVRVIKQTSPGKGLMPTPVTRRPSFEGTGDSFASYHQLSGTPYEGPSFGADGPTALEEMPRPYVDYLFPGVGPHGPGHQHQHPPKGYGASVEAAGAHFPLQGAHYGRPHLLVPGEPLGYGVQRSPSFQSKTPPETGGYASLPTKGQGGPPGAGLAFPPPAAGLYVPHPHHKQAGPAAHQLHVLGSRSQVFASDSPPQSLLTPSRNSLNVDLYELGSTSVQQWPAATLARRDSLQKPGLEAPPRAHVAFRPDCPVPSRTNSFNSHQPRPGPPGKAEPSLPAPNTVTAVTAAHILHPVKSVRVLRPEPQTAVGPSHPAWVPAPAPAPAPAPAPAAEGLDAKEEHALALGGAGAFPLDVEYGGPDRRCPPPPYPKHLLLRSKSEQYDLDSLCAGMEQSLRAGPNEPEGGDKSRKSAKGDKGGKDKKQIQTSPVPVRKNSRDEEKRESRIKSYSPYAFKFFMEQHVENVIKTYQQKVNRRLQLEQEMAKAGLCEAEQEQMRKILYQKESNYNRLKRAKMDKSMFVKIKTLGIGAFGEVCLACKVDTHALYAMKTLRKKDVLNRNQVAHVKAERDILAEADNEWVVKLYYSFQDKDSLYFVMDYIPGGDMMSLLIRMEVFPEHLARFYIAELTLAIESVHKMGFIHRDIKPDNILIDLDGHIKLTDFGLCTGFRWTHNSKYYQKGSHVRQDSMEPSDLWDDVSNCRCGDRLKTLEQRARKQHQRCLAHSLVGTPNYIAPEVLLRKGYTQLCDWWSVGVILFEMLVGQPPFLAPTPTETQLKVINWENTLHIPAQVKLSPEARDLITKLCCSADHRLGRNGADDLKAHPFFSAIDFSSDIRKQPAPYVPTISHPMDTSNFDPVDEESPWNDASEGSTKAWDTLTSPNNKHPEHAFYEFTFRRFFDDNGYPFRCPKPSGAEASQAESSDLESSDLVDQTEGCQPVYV

| binding [1] | binding [2] | Substance |
| --- | --- | --- |
| binds | – | V5-tagged LIMD1 Y646A (from UniProt Q9UGP4 1-676) |
| no binding | no binding | GFP-LIMD1-(1-467), amino-terminal half of LIMD1 (from UniProt Q9UGP4 1-467) (domain or fragment) |
| binds | binds | GFP-LIMD1-(468-676), carboxy-terminal half of LIMD1 with the three LIM domains (from UniProt Q9UGP4 468-676) (domain or fragment) |
| binds | – | V5-tagged wild-type LIMD1 (from UniProt Q9UGP4 1-676) |
